# Test results: US20140308201A1 (Novartis, published 2014)
# T1: Cynomolgus monkey FGFR2 IIIb D1-3 (cynomolgus monkey)
# T1 construct: also called Cyno FGFR2 IIIb
# T1 chain: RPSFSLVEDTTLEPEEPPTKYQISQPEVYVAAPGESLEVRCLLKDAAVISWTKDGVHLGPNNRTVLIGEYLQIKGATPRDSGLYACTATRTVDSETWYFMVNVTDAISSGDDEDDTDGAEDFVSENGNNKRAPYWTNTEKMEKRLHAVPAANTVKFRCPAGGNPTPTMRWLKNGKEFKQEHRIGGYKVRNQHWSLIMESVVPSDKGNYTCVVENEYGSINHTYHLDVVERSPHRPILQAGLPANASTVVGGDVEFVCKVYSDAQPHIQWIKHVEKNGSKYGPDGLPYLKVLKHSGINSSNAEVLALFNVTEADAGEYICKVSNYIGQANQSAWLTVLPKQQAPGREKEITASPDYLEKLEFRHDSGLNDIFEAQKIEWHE
# T2: Human FGFR2 IIIb D1-3 (human)
# T2 construct: Extracellular domains D1-3 with C-terminal tag, made in HEK293T; also called recombinant human FGFR2 IIIb; hFGFR2
# T2 chain: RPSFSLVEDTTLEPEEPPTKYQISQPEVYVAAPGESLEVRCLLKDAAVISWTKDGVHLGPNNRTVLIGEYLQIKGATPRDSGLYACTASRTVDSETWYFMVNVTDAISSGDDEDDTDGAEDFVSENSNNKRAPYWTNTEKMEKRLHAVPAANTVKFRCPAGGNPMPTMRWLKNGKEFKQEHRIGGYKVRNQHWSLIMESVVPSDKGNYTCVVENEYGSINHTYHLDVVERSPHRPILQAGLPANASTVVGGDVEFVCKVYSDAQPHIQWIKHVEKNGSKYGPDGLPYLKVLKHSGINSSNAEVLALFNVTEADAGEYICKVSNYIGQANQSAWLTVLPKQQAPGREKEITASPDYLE
# B1: 12433-MCC-DM1 (other)
# heavy: QVQLVQSGAEVKKPGESLKISCKGSGYSFTNYYIHWVRQMPGKGLEWMGAIYPDNSDTTYSPSFQGQVTISADKSISTAYLQWSSLKASDTAMYYCARGADIWGQGTLVTVSSASTKGPSVFPLAPSSKSTSGGTAALGCLVKDYFPEPVTVSWNSGALTSGVHTFPAVLQSSGLYSLSSVVTVPSSSLGTQTYICNVNHKPSNTKVDKRV[human IgG1 Fc cut from this listing]
# light: DIQMTQSPSSLSASVGDRVTITCRASQDIDPYLSNWYQQKPGKAPKLLIYDASNLQSGVPSRFSGSGSGTDFTLTISSLQPEDFATYYCQQTTSHPYTFGQGTKVEIKRTVAAPSVFIFPPSDEQLKSGTASVVCLLNNFYPREAKVQWKVDNALQSGNSQESVTEQDSKDSTYSLSSTLTLSKADYEKHKVYACEVTHQGLSSPVTKSFNRGEC
# modifications: DM1 linked through MCC (SMCC) linker to lysine residues, sites not given; DM1 linked through MCC (SMCC) linker to lysine residues, sites not given, MAR 3.4
# B2: mAb12425 (antibody, human IgG1, kappa)
# heavy: QVQLLESGGGLVQPGGSLRLSCAASGFTFSDYAMSWVRQAPGKGLEWVSVIEGDGSYTHYADSVKGRFTISRDNSKNTLYLQMNSLRAEDTAVYYCAREKTYSSAFDYWGQGTLVTVSSASTKGPSVFPLAPSSKSTSGGTAALGCLVKDYFPEPVTVSWNSGALTSGVHTFPAVLQSSGLYSLSSVVTVPSSSLGTQTYICNVNHKPSNTKVDKRV[human IgG1 Fc cut from this listing]
# light: DIQMTQSPSSLSASVGDRVTITCRASQDISSDLNWYQQKPGKAPKLLIYDASNLQSGVPSRFSGSGSGTDFTLTISSLQPEDFAVYYCQQHYSPSHTFGQGTKVEIKRTVAAPSVFIFPPSDEQLKSGTASVVCLLNNFYPREAKVQWKVDNALQSGNSQESVTEQDSKDSTYSLSSTLTLSKADYEKHKVYACEVTHQGLSSPVTKSFNRGEC
# notes: HuCAL human IgG1
# B3: 12425-MCC-DM1 (other)
# heavy: QVQLLESGGGLVQPGGSLRLSCAASGFTFSDYAMSWVRQAPGKGLEWVSVIEGDGSYTHYADSVKGRFTISRDNSKNTLYLQMNSLRAEDTAVYYCAREKTYSSAFDYWGQGTLVTVSSASTKGPSVFPLAPSSKSTSGGTAALGCLVKDYFPEPVTVSWNSGALTSGVHTFPAVLQSSGLYSLSSVVTVPSSSLGTQTYICNVNHKPSNTKVDKRV[human IgG1 Fc cut from this listing]
# light: DIQMTQSPSSLSASVGDRVTITCRASQDISSDLNWYQQKPGKAPKLLIYDASNLQSGVPSRFSGSGSGTDFTLTISSLQPEDFAVYYCQQHYSPSHTFGQGTKVEIKRTVAAPSVFIFPPSDEQLKSGTASVVCLLNNFYPREAKVQWKVDNALQSGNSQESVTEQDSKDSTYSLSSTLTLSKADYEKHKVYACEVTHQGLSSPVTKSFNRGEC
# modifications: DM1 linked through MCC (SMCC) linker to lysine residues, sites not given; DM1 linked through MCC (SMCC) linker to lysine residues, sites not given, MAR 3.5-3.6
# Key:
# [1] = biological target: T1, Cynomolgus monkey FGFR2 IIIb D1-3; experiment: SPR Biacore, method as Example 2
# Human FGFR4 ECD = biological target: T3, Human FGFR4 ECD (human, UniProt P22455 22-369); experiment: screening of panning outputs for specificity and cross-reactivity (assays of Example 1)
# T3 construct: Extracellular domain with C-terminal tag
# Mouse FGFR2 IIIb D1-3 [2] = biological target: T4, Mouse FGFR2 IIIb D1-3 (mouse); experiment: SPR Biacore, method as Example 2
# T4 construct: Extracellular domains with C-terminal tag
# Human FGFR2 IIIb D1-3 [3] = biological target: T2, Human FGFR2 IIIb D1-3; experiment: SPR Biacore, method as Example 2
# Human FGFR2 IIIb D1-3 [4] = biological target: T2, Human FGFR2 IIIb D1-3; experiment: SPR Biacore, method as Example 2
# Mouse FGFR2 IIIb D1-3 [5] = biological target: T4, Mouse FGFR2 IIIb D1-3; experiment: SPR Biacore, IgG captured via anti-human Fc, soluble FGFR as analyte
# Human FGFR2 IIIb D1-3 [6] = biological target: T2, Human FGFR2 IIIb D1-3; experiment: as above
# [7] = biological target: T1, Cynomolgus monkey FGFR2 IIIb D1-3; experiment: as above
Binder,Kd [1],binding result (Human FGFR4 ECD),Kd (Mouse FGFR2 IIIb D1-3 [2]),Kd (Human FGFR2 IIIb D1-3 [3]),Kd (Human FGFR2 IIIb D1-3 [4]),Kd (Mouse FGFR2 IIIb D1-3 [5]),Kd (Human FGFR2 IIIb D1-3 [6]),Kd [7]
B1,1.5 nM,–,–,–,–,–,–,–
B2,1.6 nM,binds,3.2 nM,2.1 nM,2.1 nM,16 nM,14 nM,12 nM
B3,1.9 nM,–,–,2.3 nM,2.3 nM,–,–,–
